For three substances, binding results are on record in publication PMC12698188.

By UniProt entry, the sequences of proteins in these tests, tags left out. Where a name states a change or a piece, a line headed by the entry shows the natural chain unless it says otherwise.
UniProt Q969H0: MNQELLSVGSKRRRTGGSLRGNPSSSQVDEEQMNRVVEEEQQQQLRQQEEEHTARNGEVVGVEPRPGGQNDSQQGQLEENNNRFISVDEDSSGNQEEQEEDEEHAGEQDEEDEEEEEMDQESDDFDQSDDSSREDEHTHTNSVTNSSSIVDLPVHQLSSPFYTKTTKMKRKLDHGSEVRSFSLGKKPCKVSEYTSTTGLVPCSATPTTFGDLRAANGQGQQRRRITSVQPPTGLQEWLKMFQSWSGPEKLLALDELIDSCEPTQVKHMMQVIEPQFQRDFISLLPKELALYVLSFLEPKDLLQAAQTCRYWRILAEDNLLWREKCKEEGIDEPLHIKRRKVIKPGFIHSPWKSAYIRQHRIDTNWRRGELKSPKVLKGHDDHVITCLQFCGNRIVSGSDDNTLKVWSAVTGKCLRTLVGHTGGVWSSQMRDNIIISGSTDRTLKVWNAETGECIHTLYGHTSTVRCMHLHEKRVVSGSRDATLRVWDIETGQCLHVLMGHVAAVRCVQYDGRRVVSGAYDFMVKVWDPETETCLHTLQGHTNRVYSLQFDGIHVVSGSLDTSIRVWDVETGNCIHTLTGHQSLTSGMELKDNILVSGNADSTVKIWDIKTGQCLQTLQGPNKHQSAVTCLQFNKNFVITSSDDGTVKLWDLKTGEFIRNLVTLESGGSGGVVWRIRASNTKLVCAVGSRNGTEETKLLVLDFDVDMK
UniProt P01106: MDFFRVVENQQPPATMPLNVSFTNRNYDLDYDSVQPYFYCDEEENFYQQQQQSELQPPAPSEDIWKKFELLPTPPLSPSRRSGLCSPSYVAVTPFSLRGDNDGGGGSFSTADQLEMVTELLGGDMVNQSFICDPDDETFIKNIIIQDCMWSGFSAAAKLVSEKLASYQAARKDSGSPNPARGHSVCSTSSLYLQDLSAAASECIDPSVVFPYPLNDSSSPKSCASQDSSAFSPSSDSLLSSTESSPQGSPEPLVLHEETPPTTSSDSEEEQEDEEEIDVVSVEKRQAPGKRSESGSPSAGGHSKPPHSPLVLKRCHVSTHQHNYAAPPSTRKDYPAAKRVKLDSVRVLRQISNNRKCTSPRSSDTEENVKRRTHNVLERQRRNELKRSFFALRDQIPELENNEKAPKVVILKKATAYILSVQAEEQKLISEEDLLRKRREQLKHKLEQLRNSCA

No constants are given. Whether binding was seen depends on the method and setting. For some assays here: Binding seen in cells or lysates may run through a third protein. Some results given as binding are weak or reduced against the parent protein; the word gives no strength. For some assays here: Sequences can lack the tags named with a protein.

Test [1] addresses T1, glutaminyl tRNA synthetase (QARS), Flag-tagged (human) (UniProt P47897).
T1 sequence: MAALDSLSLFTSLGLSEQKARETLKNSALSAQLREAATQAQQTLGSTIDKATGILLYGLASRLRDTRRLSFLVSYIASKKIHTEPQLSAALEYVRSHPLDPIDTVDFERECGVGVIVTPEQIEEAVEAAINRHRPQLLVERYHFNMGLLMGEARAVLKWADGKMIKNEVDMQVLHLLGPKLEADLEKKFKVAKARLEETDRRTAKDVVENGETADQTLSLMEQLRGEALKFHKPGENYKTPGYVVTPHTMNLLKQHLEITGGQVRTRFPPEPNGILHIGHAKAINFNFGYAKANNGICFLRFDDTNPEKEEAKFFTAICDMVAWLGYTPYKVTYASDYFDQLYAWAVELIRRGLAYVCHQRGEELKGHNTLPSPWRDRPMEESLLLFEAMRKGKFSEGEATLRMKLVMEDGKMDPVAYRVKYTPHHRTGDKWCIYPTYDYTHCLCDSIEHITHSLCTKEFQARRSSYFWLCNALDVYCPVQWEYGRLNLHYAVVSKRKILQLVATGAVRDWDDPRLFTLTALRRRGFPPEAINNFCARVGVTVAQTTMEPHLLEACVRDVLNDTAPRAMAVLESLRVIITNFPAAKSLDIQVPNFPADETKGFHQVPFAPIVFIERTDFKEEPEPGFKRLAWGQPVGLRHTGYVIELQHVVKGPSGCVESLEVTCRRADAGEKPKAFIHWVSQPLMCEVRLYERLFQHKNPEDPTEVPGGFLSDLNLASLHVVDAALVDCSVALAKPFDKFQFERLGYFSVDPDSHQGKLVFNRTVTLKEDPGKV
The experiment in a line: co-IP; co-immunoprecipitation of QARS and FBW7 (Fig. 2B); whether ectopic or endogenous proteins were used is not told.

The target of test [2] is F-box and WD repeat domain-containing 7 (FBW7), in HCT116+/+ cells (human (endogenous in HCT116)) (UniProt Q969H0). Briefly: co-IP; lysates of HCT116+/+, K604Q-KI and K604R-KI cells; increasing glutamine doses, 0 or 4 mmol/L glutamine, with or without QARS overexpression; immunoblot. (In general: In western blotting, separated proteins are transferred to a membrane and probed.)

Test [3] has as its target FBW7 K604R, knock-in in the HCT116+/+ genome (K604R-KI cells) (human (endogenous in HCT116)) (UniProt Q969H0). The description is as above.
Test [4] addresses FBW7 wild type, ectopically expressed (recombinant FBW7) (human) (UniProt Q969H0). Briefly: pull-down; in vitro: Flag- and HA-tagged proteins purified from transfected HCT116+/+ cells by immunoprecipitation; HA-tagged protein eluted with HA peptide and put on Flag beads; immunoblot; both purified.
The target in test [5] is T1, glutaminyl tRNA synthetase (QARS), Flag-tagged (human). Briefly: co-IP; ectopic co-expression in HCT116+/+ cells; lysis buffer 50 mmol/L Tris-HCl pH 7.5, 150 mmol/L NaCl, 0.5% Nonidet P-40; antibody-conjugated beads, 4°C, 4 h; immunoblot.

As for “FBW7 wild type, ectopically expressed (recombinant FBW7) (from UniProt Q969H0 1-707)”, in test [1], the binding result is given as “binds”.

Consider “c-Myc in the co-immunoprecipitations with FBW7 from HCT116+/+ and knock-in cells (from UniProt P01106 1-454)”, for which the binding result in test [2] and in test [3] was “binds” each time.

Turning to “c-Myc, ectopically expressed, tagged (from UniProt P01106 1-454)”, the binding entry in test [4] is reported as “binds”; in test [5], “no binding”.
